Results from US20080044423A1.

Assays:
Assay in all cases: cell-based or functional assay
[1] = target: human IL-17A, untagged, E. coli derived (in house or Peprotech) (human) (UniProt Q16552)
[2] = target: cynomolgus IL-17A (cynomolgus)
[3] = target: human IL-17A derived from the HEK-EBNA expression system (human) (UniProt Q16552)

B1: Antibody 2 IgG1, non-germlined form (antibody, V domains shown)
VH: [not shown - about 100 residues]DLIWGVAGSWGQGTLVTVSS
VL: NFMLTQPHSVSESPGKTVTISCTRSSGSLANYYVQWYQQRPGSSPTIVIFANNQRPSGVPDRFSGSIDSSSNSASLTISGLKTEDEADYYCQSYDPHSVVFGGGTKLTVL
cartilage explant IL-6 (IL-17A 10 ng/ml + TNF 1 ng/ml), % inhibition at 50 nM antibody [1]: 91.6% | cartilage explant IL-6 (pg/ml), mean, IL-17A 10 ng/ml + TNF 1 ng/ml + antibody (55.00 pg/ml without antibody) [1]: 4.63 pg/mL | chondrocyte IL-6 release, geometric mean IC50 at 0.2 nM IL-17A [1]: 0.85 nM | chondrocyte IL-6 release, geometric mean IC50 at 2 nM IL-17A [1]: 5.76 nM | chondrocyte IL-8 release, geometric mean IC50 at 0.2 nM IL-17A [1]: 0.74 nM | chondrocyte IL-8 release, geometric mean IC50 at 2 nM IL-17A [1]: 3.81 nM | chondrocyte MMP13 release, geometric mean IC50 at 0.2 nM IL-17A [1]: 1.55 nM | chondrocyte MMP13 release, geometric mean IC50 at 2 nM IL-17A [1]: 11.5 nM | chondrocyte PGE2 release, geometric mean IC50 at 2 nM IL-17A [1]: 1.94 nM

B2: Antibody 11 IgG1 (antibody, V domains shown)
VH: [not shown - about 100 residues]DLIWGVAGSWGQGTMVTVSS
VL: NFMLTQPHSVSESPGKTVTISCTRSSGSLANYYVQWYQQRPGSAPTIVIFANNQRPSGVPDRFSGSIDSSSNSASLTISRLKTEDEADYYCQSYSPHSVVFGGGTKLTVL
HT1080 IL-6 release, IgG IC50 [2]: 25 nM | HT1080 IL-6 release, IgG IC50 [3]: 2.2 nM

B3: Antibody 14 IgG1 (antibody, V domains shown)
VH: [not shown - about 100 residues]DLIWGVAGSWGQGTLVTVSS
VL: NFMLTQPHSVSESPGKTVTISCTRSSGSLANYYVQWYQQRPGSAPTIVIFANNQRPSGVPDRFSGSIDSSSNSASLTISRLKTEDEADYYCQSYDPTNQVFGGGTKLTVL
Fold difference in cross-reactivity (IgG) [2]: 16 fold | HT1080 IL-6 release, IgG IC50 [2]: 29 nM | HT1080 IL-6 release, IgG IC50 [3]: 1.8 nM

B4: Antibody 15 IgG1 (antibody, V domains shown)
VH: [not shown - about 100 residues]DLIWGVAGSWGQGTLVTVSS
VL: NFMLTQPHSVSESPGKTVTISCTRSSGSLANYYVQWYQQRPGSAPTIVIFANNQRPSGVPDRFSGSIDSSSNSASLTISRLKTEDEADYYCQSYSPTSVVFGGGTKLTVL
Fold difference in cross-reactivity (IgG) [2]: 19 fold | HT1080 IL-6 release, IgG IC50 [2]: 30.9 nM | HT1080 IL-6 release, IgG IC50 [3]: 1.7 nM
